“And” between values parts separate entries of the source, which are not always exact repeats. Equal values may be shown once. The campaign covered roughly 390,000 compounds. About 17,000 (4.4%) were called active. Inconclusive means that the source gave no clear call. Such entries were picked first, then a sample of the others. Calls follow the shape of the dose curve; as a rule, active = well fitted inhibition curve with a large enough effect; inconclusive = small, poorly fitted or top-dose-only effect; inactive = no such curve, though single readings can be large or run the other way. Potencies of inconclusive entries are doubtful fits and often do not repeat.
Target: Lysine-specific demethylase 4A (Homo sapiens) (UniProt O75164)
Test: qHTS Assay for Inhibitors of JMJD2A-Tudor Domain; also: nearly all actives have a fitted effect of over 50% in size
Conditions: AlphaScreen JMJD2A-Tudor / H3K4me3 peptide binding; series mostly up to 114 µM
Potency is read from the fitted curve at half-maximal effect; tags tell the direction and shape of the fitted curve.

Sequence of UniProt O75164 (O75164 whole entry, looked up, the tested form may be a part): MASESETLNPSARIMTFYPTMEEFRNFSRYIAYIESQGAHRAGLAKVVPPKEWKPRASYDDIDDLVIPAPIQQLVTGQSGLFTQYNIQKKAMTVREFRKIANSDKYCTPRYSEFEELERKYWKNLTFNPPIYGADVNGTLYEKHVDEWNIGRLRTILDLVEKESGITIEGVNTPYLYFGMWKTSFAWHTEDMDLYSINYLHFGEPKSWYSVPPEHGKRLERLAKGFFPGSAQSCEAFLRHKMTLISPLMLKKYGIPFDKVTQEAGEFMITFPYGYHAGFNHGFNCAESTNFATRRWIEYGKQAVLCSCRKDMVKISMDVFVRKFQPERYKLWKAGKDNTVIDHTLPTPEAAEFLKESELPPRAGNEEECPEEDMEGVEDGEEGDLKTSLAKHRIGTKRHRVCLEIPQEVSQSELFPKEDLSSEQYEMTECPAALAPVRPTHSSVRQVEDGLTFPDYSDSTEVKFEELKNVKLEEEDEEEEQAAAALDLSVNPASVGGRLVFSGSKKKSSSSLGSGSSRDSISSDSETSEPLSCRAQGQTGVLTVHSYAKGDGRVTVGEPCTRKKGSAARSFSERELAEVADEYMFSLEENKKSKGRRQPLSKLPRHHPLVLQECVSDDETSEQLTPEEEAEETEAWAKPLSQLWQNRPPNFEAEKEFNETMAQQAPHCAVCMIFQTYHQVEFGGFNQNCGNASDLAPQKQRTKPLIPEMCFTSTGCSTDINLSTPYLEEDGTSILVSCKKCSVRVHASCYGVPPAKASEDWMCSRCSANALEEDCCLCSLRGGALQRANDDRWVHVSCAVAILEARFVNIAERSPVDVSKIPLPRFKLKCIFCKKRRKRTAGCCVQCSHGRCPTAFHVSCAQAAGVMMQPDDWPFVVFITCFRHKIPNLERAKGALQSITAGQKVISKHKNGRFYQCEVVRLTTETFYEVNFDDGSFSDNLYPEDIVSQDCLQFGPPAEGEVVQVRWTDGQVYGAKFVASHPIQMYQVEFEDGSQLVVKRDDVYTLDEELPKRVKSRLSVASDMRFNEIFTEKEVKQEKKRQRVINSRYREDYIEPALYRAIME

Row | Structure (SMILES) | Potency
1 | O=C(COc1ccccc1)Nc1nnc(S(=O)(=O)N2CCCC2)s1 | inactive and inconclusive: 89.1 µM [inhibitor, partial curve, poor fit]
2 | COc1cc(CNCc2ccc(OC)c(OC)c2OC)cc(OC)c1 | active: 2.51 µM
3 | CC1CCCC(NC(=O)COC(=O)c2cccnc2Cl)C1C (stereo not given) | inactive
4 | COc1ccc(S(=O)(=O)NCCC(=O)OCc2cc(=O)oc3cc(C)ccc23)cc1[N+](=O)[O-] | inconclusive: 7.94 µM [inhibitor, partial curve]
5 | N#C/C(=C/c1ccc([N+](=O)[O-])cc1)C(=O)Nc1ccccc1O | inactive
6 | Cc1ccc(-c2ccc(CCC(=O)O)o2)cc1 | inconclusive: 35.5 µM [inhibitor, partial curve]
7 | O=C(N=Nc1c(O)n(Cc2ccccc2)c2ccccc12)c1ccncc1 | inactive
8 | Cc1ccc(S(=O)(=O)NCc2ccc3c(c2)cc(C)n3C)cc1 | inconclusive: 39.8 µM [inhibitor, full curve]
9 | CCN(c1ccc(OC)cc1)S(=O)(=O)c1ccc2[nH]c(=O)ccc2c1 | inconclusive: 31.6 µM [inhibitor, partial curve]
10 | C[C@H]1CN(S(=O)C(C)(C)C)[C@H](CCO)/C1=C\c1ccccc1 (stereo not given in full) | inactive
11 | COC(=O)c1ccccc1NC(=O)CCS(=O)(=O)c1ccc(Br)cc1 | active: 3.98 µM
12 | CN=c1scc(C)n1/N=C/c1cc(Br)c(O)c(Br)c1 | inconclusive: 56.2 µM [inhibitor, partial curve, poor fit]
13 | O=[N+]([O-])c1ccc(N2CCOCC2)cc1SCc1ccco1 | inconclusive: 44.7 µM [inhibitor, partial curve]
14 | O=C(/C=C/c1ccc(Br)o1)OCc1nc2ccsc2c(=O)[nH]1 | active: 39.8 µM
15 | NC(=O)C(=O)NN=C1C2CC3CC(C2)CC1C3 | inconclusive: 35.5 µM [inhibitor, single point]
16 | COc1ccc(NCc2nnc(SCC(=O)c3ccc(OC)cc3)o2)cc1 | inconclusive: 50.1 µM [inhibitor, partial curve]
17 | C=CCOn1c(=O)c(-c2ccc(OC)c(OC)c2)[n+]([O-])c2ccccc21 | active: 89.1 µM
18 | CCOc1ccccc1N=Nc1c(C)[nH]n(C(N)=S)c1=O | inconclusive: 14.1 µM [inhibitor, single point]
19 | CC1=NN(c2ccccc2)C(=O)/C1=C/C=C/C=C/N(C)C | inconclusive: 63.1 µM [inhibitor, partial curve, poor fit]
20 | CCOc1cc(CNCCc2ccccc2)ccc1OCC(=O)NC(C)(C)C | inconclusive: 20 µM [inhibitor, single point]
21 | COc1ccc(OC)c(/C=C2\SC(=S)N(N3CCOCC3)C2=O)c1 | inconclusive: 10 µM [inhibitor, full curve]
22 | Nc1c(-c2nc(-c3cccs3)no2)nnn1-c1cccc(Cl)c1 | inactive
23 | Cc1cc(C2=NNC(=NC3CC3)SC2)c(C)n1-c1ccccc1F | active: 28.2 µM

Row | Structure (SMILES) | Potency
24 | CCCC1(C(=O)OCC)NC(c2ccc(N(C)C)cc2)C2C(=O)N(c3ccc4c(c3)OCCO4)C(=O)C21 (stereo not given) | inconclusive: 50.1 µM [inhibitor, partial curve]
25 | CCCCCCCCCS(=O)(=O)N/N=C/c1cccc([N+](=O)[O-])c1 | inconclusive: 35.5 µM [inhibitor, partial curve]
26 | Cc1ccc(C)c(S(=O)(=O)N2CCN(C(=O)CCCc3c[nH]c4ccccc34)CC2)c1 | inconclusive: 15.8 µM [inhibitor, full curve, poor fit]
27 | O=[N+]([O-])c1cc(C(F)(F)F)ccc1NCCCCNS(=O)(=O)c1ccc2ccccc2c1 | inconclusive: 10 µM [inhibitor, full curve]
28 | C=CCOc1ccc(CNn2cn[nH]c2=S)cc1OCC | active: 8.91 µM
29 | Cc1c(NC(=S)N/N=C\c2ccccc2O)c(=O)n(-c2ccccc2)n1C | active: 39.8 µM
30 | CCN(CC)c1ccc(N2C(=O)C3CCCCC3C2=O)cc1[N+](=O)[O-] (stereo not given) | inconclusive: 56.2 µM [inhibitor, partial curve]
31 | CCOc1cc(C(C(=O)NCC2CCCO2)N(C(=O)Cn2nnc3ccccc32)c2ccc(C(C)=O)cc2)ccc1O (stereo not given) | inconclusive: 89.1 µM [inhibitor, single point]
32 | COc1ccc(CNCc2ccc(C)cc2)c(OC)c1 | active: 3.16 µM
33 | O=C(NC1CCCCC1)c1c(O)nc2sccn2c1=O | inactive
34 | Cc1cc(N2CCCC2)ccc1/C=C1/C(=O)N(C)C(=S)N1C | inconclusive: 7.94 µM [inhibitor, partial curve]
35 | O=S(=O)(Nc1ccc(N=Nc2ccc(O)c3ccccc23)cc1)c1ccccc1 | active: 25.1 µM
36 | Nc1nc2n(n1)C(c1ccco1)CC(c1ccc(Cl)cc1)N2 (stereo not given) | inconclusive: 79.4 µM [inhibitor, partial curve]
37 | COc1ccc(C(CNC(=O)c2cccc(S(=O)(=O)Nc3ccc(C)cc3)c2)N2CCCCC2)cc1 (stereo not given) | inconclusive: 50.1 µM [inhibitor, partial curve]
38 | COCCN1CC(CNC(=O)c2cc(COc3ccccc3SC)on2)CC1=O (stereo not given) | inactive
39 | N#Cc1nc(Cc2cccc3ccccc23)oc1N1CCCCC1 | inconclusive: 50.1 µM [inhibitor, partial curve]
40 | COc1ccc(F)c(CN2CCC(n3nccc3NC(=O)C3CCOC3)CC2)c1 (stereo not given) | inactive
41 | Cc1ccc(O)c(N=Nc2ccccc2)n1 | inconclusive: 56.2 µM [inhibitor, partial curve]
42 | COc1ccccc1CNC(=O)CCN1C(=O)COc2ccc(C)cc21 | inconclusive: 89.1 µM [inhibitor, partial curve]
43 | Cc1ccccc1NC(=S)/C(=C(\[O-])c1cc(C)n(Cc2ccccc2Cl)c1C)[n+]1ccccc1 | active: 35.5 µM
44 | O=C(Nc1ccc(-c2n[nH]c(=S)o2)cc1)c1ccccc1 | inconclusive: 79.4 µM [inhibitor, single point]
45 | Cc1ccc(-n2nc(C)c3c2NC2=C(C(=O)CC(C)(C)C2)C3c2ccccc2OCC(=O)O)cc1 (stereo not given) | active: 56.2 µM

— PubChem BioAssay AID504339 (National Center for Advancing Translational Sciences (NCATS), 2011)
